Measurements from PubChem BioAssay AID1345082 (National Center for Advancing Translational Sciences (NCATS), 2018).
Hit rate of the full screen: of about 94,000 compounds, about 4,000 (4.3%) were called active. The inconclusive results got no clear call from the source; some entries with a clear call stand among them for comparison. The call rests on the fitted dose curve; in most records, active means well fitted inhibition curve with a large enough effect; inconclusive means small, poorly fitted or top-dose-only effect; inactive means no such curve, though single readings can be large or run the other way. A potency beside an inconclusive call is a rough fit, not a confirmed value.

Experiment: Cytotoxic Profiling in NIH 3T3 Cell Line of Diverse Libraries Using Quantitative High-Throughput Screening; further: nearly all actives have a fitted effect of over 55% in size
Conditions: NIH 3T3 viability, CellTiter-Glo ATP luminescence, 48-72 h; series mostly up to 96.7 µM
Outline: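 NIH 3T3 cells at 400 cells/well received 23 nL of compound by pintool and were incubated 48 or 72 h at 37 °C. Viability was read as ATP-coupled CellTiter-Glo luminescence.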
Potency means the concentration at half of the fitted maximal effect; tags describe the fitted curve by direction and shape.

SMILES	Potency
COc1ccccc1CN1CCc2nc(C(=O)NCc3cccc(F)c3)oc2CC1	inconclusive: 100 µM [inhibitor, single point]
COC(=O)N1CCN(c2ccc3nnc(C)n3n2)CC1	inconclusive: 100 µM [inhibitor, partial curve]
Cc1ccc(C2Cn3cnc(C(=O)N4CCC(C(=O)NC5CCCC5)CC4)c3CO2)cc1 (centres undefined)	inactive
Cc1onc(-c2cnn(C)c2NCc2ccc(C#N)cc2)c1C(=O)NCc1ccccc1	inconclusive: 56.2 µM [inhibitor, partial curve, poor fit]
O=C1Nc2ccccc2C12CCN([S+](=O)([O-])c1cccc(C(F)(F)F)c1)C2 (centres undefined)	inconclusive: 35.5 µM [inhibitor, partial curve, poor fit]
Cc1oc2ccn(Cc3ccccc3F)c(=O)c2c1C(=O)NCCCN1CCCCC1C (centres undefined)	active: 39.8 µM
CCn1cc(S(=O)(=O)N2CCC(Cc3nncn3-c3ccccc3)CC2)cn1	inactive
O=C(NC1CCCN(c2cc(-c3ccc(F)cc3)[nH]n2)C1)c1ccccc1 (centres undefined)	inconclusive: 44.7 µM [inhibitor, partial curve, poor fit]
O=C(NC1CCN(c2cc(-c3ccccc3)[nH]n2)C1)c1cccc(F)c1 (centres undefined)	inactive
Cc1ccc(C(=O)N2CCN(C(=O)c3nc4cccnc4n(Cc4ccccc4)c3=O)CC2)cc1	inactive
O=C(c1ccc(-c2noc(C3CC3)n2)cc1)N1CCC2(CCOCC2)CC1	inconclusive: 79.4 µM [inhibitor, partial curve, poor fit]
Cc1ccccc1CN1CCc2nc(C(=O)NCCOc3ccccc3)oc2CC1	inconclusive: 112 µM [inhibitor, single point]
C#CCNC(=O)CNC(=O)c1cccc(-c2ccc(C(F)(F)F)cc2)c1	inactive
COC(=O)CN1C(=O)[C@@H]2C[C@@H](O)CN2C2(CN(Cc3ccccc3Cl)C2)C1=O	inactive
CSc1ccc2cc(CN3CCCC(O)C3)c(-c3ccc(Cl)cc3)nc2c1 (centres undefined)	inconclusive: 50.1 µM [inhibitor, partial curve, poor fit]
Cc1cc(OCCN(C)C)c(C)c2c1CC[C@@H]([C@H](C)C(=O)NCc1cccs1)C2	active: 63.1 µM
COCCNC(=O)c1ccc(OC2CCN(C/C=C/c3ccc(F)cc3)CC2)c(Cl)c1	inconclusive: 56.2 µM [inhibitor, partial curve, poor fit]
COc1ccccc1-c1ccc2c(C(=O)N3CCN(c4ncccn4)CC3)nn(C)c2n1	inactive
CCCn1cc(-c2ccncc2)cc1C(=O)Nc1ccccc1C	inconclusive: 44.7 µM [inhibitor, partial curve, poor fit]
